Consider 24 compounds from patent publication US11618753B2 (priority 2018, dated 2023).

Counter-ions that a name gives are not always drawn.

In this assay the test system is MLKL phosphorylation, HT29-L23 human colorectal adenocarcinoma cells. As to the kind of experiment: cells. The following applies: read-out: pMLKL HCS Cell Assay (IC50, uM).
What is called IC50 is the concentration that gives 50% inhibition. Turning to `COCc1cc(-c2cnc(OC)c(C(=O)NCC[C@H](O)c3ccc(Cl)cc3)c2)n2ncnc(N)c12` [Example 50, (S)-5-(4-amino-5-(methoxymethyl)pyrrolo[2,1-f][1,2,4]triazin-7-yl)-N-(3-(4-chlorophenyl)-3-hydroxypropyl)-2-methoxynicotinamide], the IC50 was determined as 0.0036 µM.
For `[2H]C([2H])([2H])Oc1ncc(-c2cc(C(F)(F)F)c3c(N)ncnn23)cc1C(=O)N[C@@H]1CN(C(=O)C2CC(F)(F)C2)C[C@@H]1F` [Example 390, 5-(4-amino-5-(trifluoromethyl)pyrrolo [2,1-f][1,2,4]triazin-7-yl)-N-((3R,4S)-1-(3,3-difluorocyclobutane-1-carbonyl)-4-fluoropyrrolidin-3-yl)-2-(methoxy-d3) nicotinamide], the IC50 was 0.011 µM.
The same measure for `CC(O)(CC(=O)N1C[C@H](F)[C@H](NC(=O)c2cc(-c3cc(C(F)(F)F)c4c(N)ncnn34)ccc2C(F)(F)F)C1)C(F)(F)F` (stereo partly drawn) [Example 898, 5-[4-amino-5-(trifluoromethyl)pyrrolo[2,1-f][1,2,4]triazin-7-yl]-N-[(3R,4S)-4-fluoro-1-(4,4,4-trifluoro-3-hydroxy-3-methylbutanoyl)pyrrolidin-3-yl]-2-(trifluoromethyl)benzamide]: 0.019 µM; for `COc1ncc(-c2cc(C(=O)N(C)C)c3c(N)ncnn23)cc1C(=O)NCC[C@H](O)c1ccc(Cl)cc1` [Example 476, 5-[4-amino-5-(dimethylcarbamoyl)pyrrolo[2,1-f][1,2,4]triazin-7-yl]-N-[(3S)-3-(4-chlorophenyl)-3-hydroxypropyl]-2-methoxypyridine-3-carboxamide]: 0.072 µM; for `COc1ncc(-c2cc(C(F)(F)F)c3c(N)ncnn23)cc1C(=O)Nc1nc(C(=O)NC(C)(C)C)co1` [Example 1300, 5-[4-amino-5-(trifluoromethyl)pyrrolo-[2,1-f][1,2,4]triazin-7-yl]-N-[4-(tert-butylcarbamoyl)-1,3-oxazol-2-yl]-2-methoxypyridine-3-carboxamide]: 0.328 µM.
For `[2H]C([2H])([2H])Oc1ncc(-c2cc(C(F)(F)F)c3c(N)ncnn23)cc1C(=O)N[C@@H]1CN(C(=O)c2cc(F)ccc2F)C[C@@H]1F` [Example 383, 5-[4-amino-5-(trifluoromethyl)pyrrolo [2,1-f][1,2,4]triazin-7-yl]-N-[(3R,4S)-1-(2,5-difluorobenzoyl)-4-fluoro-pyrrolidin-3-yl]-2-(deutero)methoxy-pyridine-3-carboxamide, TFA], the IC50 is 0.0072 µM.
The same measure for `Cc1ncc(-c2cc(C(F)(F)F)c3c(N)ncnn23)cc1C(=O)N[C@@H]1CN(C(=O)[C@@H](O)C(F)(F)F)C[C@@H]1F` [Example 361, 5-[4-amino-5-(trifluoromethyl)pyrrolo [2,1-f][1,2,4]triazin-7-yl]-N-[(3R,4S)-4-fluoro-1-[(2R)-3,3,3-trifluoro-2-hydroxypropanoyl]pyrrolidin-3-yl]-2-methylpyridine-3-carboxamide, TFA]: 0.189 µM; for `COc1ncc(-c2c(C#N)cc3c(N)ncnn23)cc1C(=O)N[C@@H]1CN(C(=O)C2CCC(O)(C(F)(F)F)CC2)C[C@@H]1F` (stereo partly drawn) [Example 558, 5-(4-amino-6-cyanopyrrolo[2,1-f][1,2,4]triazin-7-yl)-N-((3R,4S)-4-fluoro-1-(4-hydroxy-4-(trifluoromethyl)cyclohexane-1-carbonyl)pyrrolidin-3-yl)-2-methoxynicotinamide]: 6.25 µM; for `COc1ncc(-c2cc(C(F)(F)F)c3c(N)ncnn23)cc1C(=O)Nc1ccn(Cc2ccccc2)n1` [Example 1725, 5-(4-amino-5-(trifluoromethyl)pyrrolo[2,1-f][1,2,4]triazin-7-yl)-N-(1-benzyl-1H-pyrazol-3-yl)-2-methoxynicotinamide]: 0.02 µM.
To `COc1ncc(-c2cc(C(F)(F)F)c3c(N)ncnn23)cc1C(=O)N[C@@H]1CN(C(=O)N2CCC(F)(F)C2)C[C@@H]1F` [Example 1841, 5-(4-amino-5-(trifluoromethyl)pyrrolo[2,1-f][1,2,4]triazin-7-yl)-N-((3R,4S)-1-(3,3-difluoropyrrolidine-1-carbonyl)-4-fluoropyrrolidin-3-yl)-2-methoxynicotinamide] belongs 0.086 µM.
The same measure for `COc1cc(F)c(-c2cc(C(F)(F)F)c3c(N)ncnn23)cc1C(=O)N[C@@H]1CN(C(=O)C(C)C(F)(F)F)C[C@@H]1F` (stereo partly drawn) [Example 878, 5-[4-amino-5-(trifluoromethyl)pyrrolo[2,1-f][1,2,4]triazin-7-yl]-4-fluoro-N-[(3R,4S)-4-fluoro-1-(3,3,3-trifluoro-2-methylpropanoyl)pyrrolidin-3-yl]-2-methoxybenzamide]: 0.0089 µM; for `COc1ncc(-c2cc(C(F)(F)F)c3c(N)ncnn23)cc1C(=O)N[C@@H]1CN(C(=O)NC(C)(C)C)C[C@@H]1F` [Example 1838, 5-(4-amino-5-(trifluoromethyl)pyrrolo[2,1-f][1,2,4]triazin-7-yl)-N-((3R,4S)-1-(tert-butylcarbamoyl)-4-fluoropyrrolidin-3-yl)-2-methoxynicotinamide]: 0.105 µM; for `Cc1nc(C)c(-c2cc(C(F)(F)F)c3c(N)ncnn23)cc1C(=O)N1CCC[C@@H](Cc2ccc(F)cc2)C1` [Example 529, 7-{5-[(3S)-3-[(4-fluorophenyl)methyl]piperidine-1-carbonyl]-2,6-dimethylpyridin-3-yl}-5-(trifluoromethyl)pyrrolo[2,1-f][1,2,4]triazin-4-amine]: 0.047 µM.
Consider `C[C@@](O)(C(=O)N1C[C@H](F)[C@H](NC(=O)c2cc(-c3cc(C(F)(F)F)c4c(N)ncnn34)cc(F)c2CF)C1)C(F)(F)F` [Example 617, 5-[4-amino-5-(trifluoromethyl)pyrrolo[2,1-f][1,2,4]triazin-7-yl]-3-fluoro-N-[(3R,4S)-4-fluoro-1-[(2R)-3,3,3-trifluoro-2-hydroxy-2-methylpropanoyl]pyrrolidin-3-yl]-2-(fluoromethyl)benzamide], for which the IC50 amounted to 0.0024 µM.
With `CCC(O)(C(=O)N1C[C@H](F)[C@H](NC(=O)c2cc(-c3cc(CN4CCC(C(F)(F)F)CC4)c4c(N)ncnn34)ccc2C)C1)C(F)(F)F` (stereo partly drawn) [Example 1653, 5-(4-amino-5-{[4-(trifluoromethyl)piperidin-1-yl]methyl}pyrrolo[2,1-f][1,2,4]triazin-7-yl)-N-[(3R,4S)-4-fluoro-1-[2-hydroxy-2-(trifluoromethyl)butanoyl]pyrrolidin-3-yl]-2-methylbenzamide], the IC50 came to 0.0011 µM.
Regarding `Cc1cc(C)c(-c2cc(C(F)(F)F)c3c(N)ncnn23)cc1C(=O)N[C@@H]1CN(C(=O)c2ccc(F)cc2)C[C@@H]1F` [Example 538, 5-[4-amino-5-(trifluoromethyl)pyrrolo[2,1-f][1,2,4]triazin-7-yl]-N-[(3R,4S)-4-fluoro-1-(4-fluorobenzoyl)pyrrolidin-3-yl]-2,4-dimethylbenzamide], the IC50 came to 0.037 µM.
To `COc1ncc(-c2cc(CN3CC(F)(F)C3)c3c(N)ncnn23)cc1C(=O)N[C@@H]1CN(C(=O)[C@H]2CC2(F)F)C[C@@H]1F` [Example 1558, 5-{4-amino-5-[(3,3-difluoroazetidin-1-yl)methyl]pyrrolo[2,1-f][1,2,4]triazin-7-yl}-N-[(3R,4S)-1-[(1R)-2,2-difluorocyclopropanecarbonyl]-4-fluoropyrrolidin-3-yl]-2-methoxypyridine-3-carboxamide] belongs 0.0088 µM; to `COc1c(F)cc(-c2cc(C(F)(F)F)c3c(N)ncnn23)cc1C(=O)N[C@@H]1CN(C(=O)C2CCC(F)(F)CC2)C[C@@H]1F` [Example 689, 5-[4-amino-5-(trifluoromethyl)pyrrolo[2,1-f][1,2,4]triazin-7-yl]-N-[(3R,4S)-1-(4,4-difluorocyclohexanecarbonyl)-4-fluoropyrrolidin-3-yl]-3-fluoro-2-methoxybenzamide], 0.184 µM; to `COc1ncc(-c2cc(CN3CCC(F)(F)CC3)c3c(N)ncnn23)cc1C(=O)N[C@@H]1CN(C(=O)c2c(F)cc(F)cc2F)C[C@@H]1F` [Example 1251, 5-{4-amino-5-[(4,4-difluoropiperidin-1-yl)methyl]pyrrolo[2,1-f][1,2,4]triazin-7-yl}-N-[(3R,4S)-4-fluoro-1-(2,4,6-trifluorobenzoyl)pyrrolidin-3-yl]-2-methoxypyridine-3-carboxamide], 0.0009 µM.
To `COc1ncc(-c2cc(C(F)(F)F)c3c(N)ncnn23)cc1C(=O)NC1CN(Cc2nc3ccccc3o2)CC1F` (racemic) [Example 201, 5-[4-amino-5-(trifluoromethyl)pyrrolo[2,1-f][1,2,4]triazin-7-yl]-N-{1-[(1,3-benzoxazol-2-yl)methyl]-4-fluoropyrrolidin-3-yl}-2-methoxypyridine-3-carboxamide] belongs 0.016 µM; to `COc1ncc(-c2cc(Cn3cncn3)c3c(N)ncnn23)cc1C(=O)N[C@@H]1CN(C(=O)C2CC(F)(F)C2)C[C@@H]1F` [Example 1707, 5-(5-((1H-1,2,4-triazol-1-yl)methyl)-4-aminopyrrolo[2,1-f][1,2,4]triazin-7-yl)-N-((3R,4S)-1-(3,3-difluorocyclobutane-1-carbonyl)-4-fluoropyrrolidin-3-yl)-2-methoxynicotinamide], 0.012 µM; to `Cc1cc(F)c(-c2cc(CN3CCC(F)(F)CC3)c3c(N)ncnn23)cc1C(=O)N[C@@H]1CN(C(=O)C2CC(F)(F)C2)C[C@@H]1F` [Example 1578, 5-{4-amino-5-[(4,4-difluoropiperidin-1-yl)methyl]pyrrolo[2,1-f][1,2,4]triazin-7-yl}-N-[(3R,4S)-1-(3,3-difluorocyclobutanecarbonyl)-4-fluoropyrrolidin-3-yl]-4-fluoro-2-methylbenzamide], 0.001 µM.
The same measure for `COc1ncc(-c2cc(C(F)(F)F)c3c(N)ncnn23)cc1C(=O)N[C@@H]1CN(C(=O)c2cccnc2)C[C@@H]1F` [Example 336, 5-[4-amino-5-(trifluoromethyl)pyrrolo[2,1-f][1,2,4]triazin-7-yl]-N-[(3R,4S)-4-fluoro-1-(pyridine-3-carbonyl)pyrrolidin-3-yl]-2-methoxypyridine-3-carboxamide]: 0.129 µM; for `COc1ncc(-c2cc(C(=O)NCCNC(C)=O)c3c(N)ncnn23)cc1C(=O)N1CCC[C@@H](Cc2ccc(F)cc2)C1` [Example 471]: 0.143 µM.
